{"source": "PubChem BioAssay AID463173", "about": "(ICCB-Longwood Screening Facility, Harvard Medical School, 2010)", "note": "Out of some 52,000 compounds screened, about 4,300 (8.3%) were called active. Cut-off read from the data, not from the text of the source: active = survival mostly below about 52% (no sharp cut-off); inactive = mostly above about 56%. Some of the results follow.", "data": [{"system": "DeltatarO mutant", "experiment": "growth inhibition of S. aureus wild type versus tarO mutant, primary screen, teichoic acid synthesis inhibitors, RN4220, OD600 (AID 463173)", "settings": "OD600, 18 h, stronger effect = lower value, screened at 18.75 µg/mL (by protocol)", "values": [{"molecule": "Cc1ccc2nc(COc3ccccc3NC(=O)c3ccccc3F)cc(=O)n2c1", "survival": "inactive: 85%"}, {"molecule": "CCOc1cccc(C2c3[nH]c4ccccc4c3CCN2C(=O)CSCc2ccc(F)cc2)c1", "note": "(centres undefined)", "survival": "inactive: 79%"}, {"molecule": "COc1ccc(OC)c(NC(=O)CSc2ncc3c(n2)-c2ccccc2N(C)S3(=O)=O)c1", "survival": "inactive: 94%"}, {"molecule": "O=C(C1COc2ccccc2O1)N(Cc1cccnc1)c1nc2c(Cl)cccc2s1", "note": "(centres undefined)", "survival": "inactive: 79%"}, {"molecule": "NC(=O)Cn1c(=O)n(CCCCCC(=O)NCc2ccc(F)cc2)c(=O)c2sccc21", "survival": "inactive: 75%"}, {"molecule": "CCOC(=O)N1CCN(Cc2nc3cc(NC(=O)C(C)C)ccc3n2C(C)C)CC1", "survival": "inactive: 68%"}, {"molecule": "CCCNC(=O)c1ccc(-c2nc(CS(=O)(=O)c3ccc(C)cc3)c(C)o2)cc1", "survival": "inactive: 65%"}, {"molecule": "COc1ccccc1N(CC(=O)Nc1ccc2c(c1)OCO2)S(=O)(=O)c1ccc(C)cc1", "survival": "inactive: 79%"}, {"molecule": "O=C(c1ccc(F)cc1)N1CCC(c2nc(-c3ccc(S(=O)(=O)N4CCCC4)cc3)no2)CC1", "survival": "inactive: 92%"}, {"molecule": "NC(=O)CSc1nnc(Cn2cnc3ccccc32)o1", "survival": "inactive: 79%"}, {"molecule": "O=C(CN1c2ccccc2S(=O)(=O)c2ccccc21)Nc1ccccc1Cl", "survival": "inactive: 57%"}, {"molecule": "O=C(Cn1cnc2onc(-c3ccc(F)cc3)c2c1=O)Nc1ccc(F)c(Cl)c1", "survival": "inactive: 84%"}, {"molecule": "CCc1nn(CC(=O)NCCCN2CCN(CC)CC2)c(=O)c2cc3occc3n12", "survival": "inactive: 127%"}, {"molecule": "CCOc1ccc(S(=O)(=O)c2cn(Cc3ccccc3C)c3ccc(OC)cc3c2=O)cc1", "survival": "inactive: 64%"}, {"molecule": "O=C(O)CCC(=O)Nc1nc(-c2ccccc2)cs1", "survival": "inactive: 85%"}, {"molecule": "CCCOc1ccc(-c2nonc2NC(=O)c2oc3ccc(Cl)cc3c2C)cc1OCCC", "survival": "inactive: 48%"}, {"molecule": "N#C/C(=C\\c1cccnc1)C(=O)Nc1ccccc1", "survival": "inactive: 56%"}, {"molecule": "CCCCOc1ccc(Cn2c(=O)oc3ccc(C)cc32)cc1", "survival": "active: 40%"}, {"molecule": "C=CCN1C(=O)/C(=C2/SC(C)=C(C)N2CC)SC1=Nc1c(C)n[nH]c1C", "survival": "inactive: 108%"}, {"molecule": "O=C(Nc1ccc(N2CCN(c3ccc(F)cc3)CC2)c(C(=O)O)c1)c1ccccc1F", "survival": "inactive: 95%"}, {"molecule": "COc1ccc(C)cc1NC(=O)C1CCN(S(=O)(=O)c2ccc3c(c2)CCCN3C(C)=O)CC1", "survival": "inactive: 77%"}, {"molecule": "CC1=C(C(=O)Nc2cccnc2)C(c2ccccc2)n2nc(SCc3ccccc3Cl)nc2N1", "note": "(centres undefined)", "survival": "inactive: 169%"}, {"molecule": "COC(=O)c1cc(S(=O)(=O)NCC2CCN(Cc3ccc(F)cc3)CC2)c[nH]1", "survival": "inactive: 77%"}, {"molecule": "COCCNC(=O)CSc1nc2cc3c(cc2c(=O)n1CCCC(=O)NCc1ccc(OC)cc1)OCO3", "survival": "inactive: 84%"}]}]}
